For this series the following is noted: at the concentrations tested.

Take `Cc1nc2ccccc2nc1SCC(=O)NC(=O)Nc1ccccc1` [Compound 5, 2-((3-methylquinoxalin-2-yl)thio)-N-(phenylcarbamoyl)acetamide]: the “cytotoxicity by MTT assay” value is “virtually no cytotoxicity”.

For the compound `Cc1nn(-c2ccccc2)c(C)c1NC(=O)CN1CCCC(c2nc3ccccc3s2)C1` (centres unmarked) [Compound 4, 2-(3-(benzo[d]thiazol-2-yl)piperidin-1-yl)-N-(3,5-dimethyl-1-phenyl-1H-pyrazol-4-yl)acetamide], the “cytotoxicity by MTT assay” value was “virtually no cytotoxicity”.
